{"source": "PubChem BioAssay AID624417", "about": "(National Center for Advancing Translational Sciences (NCATS), 2012)", "note": "Among all 410,000 compounds or so, about 6,400 (1.6%) were called active. The shares of active, inactive and inconclusive entries below differ from those in the screen. Calls follow the shape of the dose curve; as a rule, active = well fitted inhibition curve with a large enough effect; inconclusive = small, poorly fitted or top-dose-only effect; inactive = no such curve, though single readings can be large or run the other way. Potencies of inconclusive entries are left out as doubtful fits. % is scaled to controls: 0 for no effect and ±100 for the full control effect; potency is read from the fitted curve at half-maximal effect; tags tell the direction and shape of the fitted curve.", "data": [{"biological_target": "Glucagon-like peptide 1 receptor (Homo sapiens) (UniProt P43220)", "sequence (P43220 whole entry, looked up)": "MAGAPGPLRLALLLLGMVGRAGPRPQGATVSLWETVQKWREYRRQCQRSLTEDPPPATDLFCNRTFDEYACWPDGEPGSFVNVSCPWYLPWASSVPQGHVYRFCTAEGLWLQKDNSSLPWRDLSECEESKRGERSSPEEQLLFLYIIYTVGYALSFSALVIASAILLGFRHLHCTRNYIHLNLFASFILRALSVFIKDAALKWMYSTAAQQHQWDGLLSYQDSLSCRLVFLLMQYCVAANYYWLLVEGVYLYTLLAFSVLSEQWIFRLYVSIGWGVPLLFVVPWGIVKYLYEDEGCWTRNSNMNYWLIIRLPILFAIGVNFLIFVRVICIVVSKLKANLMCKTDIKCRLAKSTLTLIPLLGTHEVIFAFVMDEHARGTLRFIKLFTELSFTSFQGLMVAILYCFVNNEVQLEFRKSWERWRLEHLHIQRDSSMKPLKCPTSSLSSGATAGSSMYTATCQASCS", "test": "qHTS of GLP-1 Receptor Inverse Agonists (Inhibition Mode); also: nearly all actives have a fitted effect of over 55% in size", "details": "HEK293 GLP-1R CRE-luciferase, luminescence, 24 h, GLP-1R form is constitutively active; activity change, negative = inhibition: at 38.3 µM (top of the series) unless noted", "source_text": "The overall goal of this project was to develop a novel assay for discovering small molecule ligands for class B1 G protein-coupled receptors (GPCRs). Very few agonists (or inverse agonists in inhibition mode) with generally weak activity for this entire group of physiologically important receptors are known to date. To establish proof-of-principle that this critical bottleneck can be overcome with a suitable screening approach, our studies focused on the class B1 receptor for glucagon-like peptide-1 (GLP-1R), a potential therapeutic target for diabetes and neurodegenerative disease. The assay was developed using a cell-based functional readout. Toward this goal, stably transfected HEK293 cell clones were established that co-express (i) a cAMP-responsive luciferase reporter gene, and (ii) constitutively active GLP-1R that upon ligand interaction inhibit (inverse agonists) the luciferase activity. In addition, two control cell lines were developed: (i) one that express only the cAMP-responsive reporter gene to enable initial exclusion of GLP-1R independent effects of candidate probes; and (ii) one with the reported gene cloned with another constitutively active orphan receptor GPR119 to enable exclusion of GLP-1R independent inhibitor effects of candidate inverse agonists. To that end, this assay was optimized for 1536-well format and screened against the MLSMR. […] NIH Molecular Libraries Probe Production Network [MLPCN] NIH Chemical Genomics Center [NCGC] Grant: NS064851 PI Name: Martin Beinborn, Tufts Medical Center\nSix ul of cell suspension (200 cells/uL in DMEM + 10% Nu serum + 1% pen-strep) is dispensed in a white solid 1536-well plate. The plates are incubated for 12 hours at 37 deg C at 5% CO2 followed by addition of 23 nL compounds. After 24 hr incubation at 37 deg C and 5% CO2, 3 uL of luciferase assay detection reagent is added. A luminescence read is obtained on the PerkinElmer Viewlux after 12 min incubation at room temperature.", "values": [{"smiles": "O=C(NCc1ncc(C(F)(F)F)cc1Cl)Nc1ccccc1", "activity change, negative = inhibition": "inconclusive: -57.9% [inhibitor]"}, {"smiles": "CCCCC(=O)Nc1cc2nn(-c3ccc(OC)cc3)nc2cc1C", "activity change, negative = inhibition": "inactive: 0%"}, {"smiles": "COc1ccccc1NC(=S)NNC(=O)c1cc(C)nn1C", "activity change, negative = inhibition": "inactive: 7.24%"}, {"smiles": "O=C(COc1ccc(Cl)cc1)Nc1nc(-c2cccs2)cs1", "Potency": "inconclusive [inhibitor, single point]"}, {"smiles": "O=C(Nc1ccccc1C(=O)NC1CCCCC1)c1ccco1", "Potency": "inconclusive [inhibitor, partial curve]"}, {"smiles": "Cc1ccccc1OC(=O)c1cc(-c2ccc3c(c2)OCCO3)on1", "activity change, negative = inhibition": "inactive: 21.8%"}, {"smiles": "CCn1ccnc1CN1CCc2c([nH]c3ccccc23)C1CC(C)C", "note": "(stereo not given)", "Potency": "inconclusive [inhibitor, single point]"}, {"smiles": "CCCCn1nnnc1C(c1ccccc1)N1CCN(c2ccc(C(F)(F)F)cn2)CC1", "note": "(stereo not given)", "Potency": "inconclusive [inhibitor, partial curve, poor fit]"}, {"smiles": "Cc1ccc(-c2nc(NCc3ccco3)c3ccccc3n2)cc1", "Potency": "inconclusive [inhibitor, single point]"}, {"smiles": "O=C(C1CCN(S(=O)(=O)c2ccc(Cl)c(C(F)(F)F)c2)CC1)N1CCC1", "Potency": "inconclusive [inhibitor, partial curve, poor fit]"}, {"smiles": "Cc1cccc(NC(=O)Cn2ccn(-c3ccc4c(c3)OCCO4)c(=O)c2=O)c1", "activity change, negative = inhibition": "inactive: 3.72%"}, {"smiles": "Cc1ccc(S(=O)(=O)N2CCCC(C(=O)NCc3ccccc3F)C2)cc1", "note": "(stereo not given)", "Potency": "inconclusive [inhibitor, partial curve, poor fit]"}, {"smiles": "CNCc1cc(Br)c(OCC(=O)Nc2ccccc2OC)c(OC)c1", "Potency": "inconclusive [inhibitor, single point]"}, {"smiles": "Cc1ccc(NC(=O)N2CC3CCCN3c3ccccc32)cc1Cl", "note": "(stereo not given)", "activity change, negative = inhibition": "inactive: -22.3%"}, {"smiles": "CCc1nn2c(=O)cc(COC(=O)c3ccc(NC(=O)COc4ccccc4C)cc3)nc2s1", "Potency": "inconclusive [inhibitor, single point]"}, {"smiles": "CC(Cc1cccs1)NC(=O)Nc1cccc(Cl)c1", "note": "(stereo not given)", "Potency": "active: 11.2 µM"}, {"smiles": "N=c1ccn(Cc2c(Cl)cccc2Cl)cc1", "activity change, negative = inhibition": "inactive: -28.3%"}, {"smiles": "CC(=O)Oc1ccccc1/C=C/c1nc2ccccc2c(=O)o1", "Potency": "inconclusive [inhibitor, partial curve, poor fit]"}, {"smiles": "COC(=O)c1ccc(C23CC4(C2)[C@H](CN(Cc2ccc(C(F)(F)F)cc2)[C@@H]4c2ccccc2)C3c2ccccc2)cc1", "note": "(stereo not given in full)", "activity change, negative = inhibition": "inactive: 15.8%"}, {"smiles": "O=C(CC1N=C2c3ccccc3N=C(SCC(=O)Nc3ccc(F)cc3)N2C1=O)NCc1ccco1", "note": "(stereo not given)", "activity change, negative = inhibition": "inactive: -21.1%"}, {"smiles": "COC1(C)CC2C(CC1OC(=O)c1cc([N+](=O)[O-])cc([N+](=O)[O-])c1)C2(C)C", "note": "(stereo not given)", "Potency": "inconclusive [inhibitor, single point]"}, {"smiles": "O=C(c1cc(-c2cccc(O)c2)on1)N1CCOCC1", "Potency": "inconclusive [inhibitor, partial curve, poor fit]"}, {"smiles": "Cn1nc(-c2ccccc2)c(/C=N/O)c1Cl", "activity change, negative = inhibition": "inactive: 37%"}, {"smiles": "O=C(NCC1CC1)Nc1cccc(C(F)(F)F)c1", "Potency": "inconclusive [inhibitor, partial curve, poor fit]"}, {"smiles": "CCOc1ccc(NC(=O)c2oc3ccccc3c2NC(=O)C(C)(C)C)cc1", "Potency": "inconclusive [inhibitor, partial curve, poor fit]"}, {"smiles": "OC(CNC1Cc2ccccc2C1)COc1ccc(F)cc1", "note": "(stereo not given)", "Potency": "inconclusive [inhibitor, partial curve, poor fit]"}, {"smiles": "N#C/C(=C\\c1cccs1)C(=O)c1ccccc1Cl", "activity change, negative = inhibition": "inactive: -29.6%"}, {"smiles": "CC(C)CNC(=O)Nc1cc(C(=O)NCc2ccc(C(C)C)cc2)ccc1N1CCCC1", "activity change, negative = inhibition": "inactive: -19.3%"}, {"smiles": "COc1ccc(N2CCN(C(=O)CCC(=O)N3CCOc4ccc(Cl)cc43)CC2)cc1", "Potency": "inconclusive [inhibitor, partial curve, poor fit]"}, {"smiles": "COc1ccc(/C=C/CN2CCC(Oc3ccc(C(=O)N4CCCCC4)cc3)CC2)cc1", "Potency": "inconclusive [inhibitor, partial curve, poor fit]"}, {"smiles": "CCCNC(=O)c1cc(C2CCCN(C(=O)c3ccc4ccccc4c3)C2)on1", "note": "(stereo not given)", "Potency": "inconclusive [inhibitor, partial curve, poor fit]"}, {"smiles": "CC1CCN(c2nc(-c3ccc(C(C)(C)C)cc3)nc3ccccc23)CC1", "Potency": "inconclusive [inhibitor, partial curve, poor fit]"}, {"smiles": "Cc1ccccc1OCc1n[nH]c(=S)n1Cc1ccccc1", "Potency": "inconclusive [inhibitor, full curve, poor fit]"}, {"smiles": "O=c1oc2ccccc2c(NCc2ccc(Cl)cc2)c1[N+](=O)[O-]", "Potency": "inconclusive [inhibitor, partial curve, poor fit]"}, {"smiles": "CCN1C(=O)C(C(=O)NC(C)c2ccccc2)C2CC1(C)Oc1ccccc12", "note": "(stereo not given)", "Potency": "inconclusive [inhibitor, partial curve, poor fit]"}, {"smiles": "O=C(CNC(c1ccccc1)c1ccccc1)Nc1ccc(F)cc1", "Potency": "inconclusive [inhibitor, single point]"}, {"smiles": "O=C(NC(=S)Nc1ccccc1)C1CCCCC1", "activity change, negative = inhibition": "inactive: -9.76%"}, {"smiles": "CC(NNC(=S)N1CCCCCC1)c1ccc2ccccc2n1", "note": "(stereo not given)", "activity change, negative = inhibition": "inactive: -13.3%"}, {"smiles": "CC/C(=C\\C(=O)c1ccncc1)Nc1ccc(Br)cc1", "Potency": "inconclusive [inhibitor, single point]"}, {"smiles": "COc1ccc(NC(=O)c2cc(C3CCCCN3S(=O)(=O)Cc3ccccc3)on2)c(C)c1", "note": "(stereo not given)", "Potency": "inconclusive [inhibitor, single point]"}, {"smiles": "Clc1ccc(SCCOCCN2CCc3ccccc3C2)cc1", "Potency": "inconclusive [inhibitor, partial curve, poor fit]"}, {"smiles": "O=C(CNc1cc([N+](=O)[O-])ccc1NCCO)Nc1cccc(S(=O)(=O)N2CCCCC2)c1", "Potency": "inconclusive [inhibitor, single point]"}, {"smiles": "O=C(Cc1ccc(Cl)cc1)NC1CCCN(Cc2ccccc2F)C1", "note": "(stereo not given)", "Potency": "inconclusive [inhibitor, single point]"}, {"smiles": "COc1ccc(CCNc2nc(C)nc3c2oc2ccccc23)cc1OC", "activity change, negative = inhibition": "inactive: -17.7%"}, {"smiles": "C[C@]12C(=O)N(c3ccc(Br)cc3)C(=O)N1[C@@H]1c3ccccc3OC[C@@H]1[C@H]2c1ccccc1", "Potency": "inconclusive [inhibitor, single point]"}, {"smiles": "COc1ccc(OCc2ccc(C(=O)O)cc2)cc1", "Potency": "inconclusive [inhibitor, single point]"}, {"smiles": "O=C(/C=C/c1ccc(F)cc1)N1CCCN(C(=O)/C=C/c2ccc(F)cc2)CC1", "activity change, negative = inhibition": "inactive: 0%"}, {"smiles": "Cc1cccc(C)c1OCC(=O)N(Cc1ccccc1F)C1CCS(=O)(=O)C1", "note": "(stereo not given)", "activity change, negative = inhibition": "inactive: -25.1%"}, {"smiles": "CCOC(=O)CSc1nnc(-c2cccnc2)n1C", "Potency": "inconclusive [inhibitor, single point]"}, {"smiles": "CCOc1ccc(NC(=O)CSc2ccccc2N)cc1", "Potency": "inconclusive [inhibitor, partial curve, poor fit]"}, {"smiles": "CCNc1ncnc2c1cnn2C1CCCO1", "note": "(stereo not given)", "activity change, negative = inhibition": "inactive: 20.8%"}, {"smiles": "O=C(c1ccc(CS(=O)Cc2ccc(Cl)cc2)o1)N1CCN(c2cccc(Cl)c2)CC1", "note": "(stereo not given)", "Potency": "inconclusive [inhibitor, partial curve, poor fit]"}, {"smiles": "COc1ccc(NC(=O)c2ccc3oc(=O)c(S(=O)(=O)c4ccc(F)cc4)cc3c2)cc1OC", "activity change, negative = inhibition": "inactive: 2.71%"}, {"smiles": "O=C(NCc1ccco1)c1ccc(-c2ccccc2Cl)o1", "Potency": "inconclusive [inhibitor, single point]"}, {"smiles": "NC(=O)c1ccccc1N/C=C/C(=O)c1ccc(F)cc1", "activity change, negative = inhibition": "inactive: -26.8%"}, {"smiles": "CCOC(=O)Cc1ccc(NC(=O)N(Cc2ccc(OC)cc2)C2CCN(C(C)=O)CC2)cc1", "activity change, negative = inhibition": "inactive: -17.1%"}, {"smiles": "N#Cc1c(N)nc(SCc2ccccn2)c(C#N)c1-c1cccs1", "activity change, negative = inhibition": "inactive: 92.5%"}, {"smiles": "CCOc1ccccc1NC(C)C(=O)NC(=O)NC1CCCCC1", "note": "(stereo not given)", "Potency": "inconclusive [inhibitor, partial curve, poor fit]"}, {"smiles": "Cc1ccc(C(=O)NCc2ccco2)cc1S(=O)(=O)Nc1cccc(C)c1C", "Potency": "inconclusive [inhibitor, single point]"}, {"smiles": "CN1CCN(C(=O)c2cccc3c(-c4ccc(F)c(F)c4)coc23)CC1", "activity change, negative = inhibition": "inactive: -24.8%"}, {"smiles": "O=C(CSc1nnc(-c2ccc(Cl)cc2)n1-c1ccc(Cl)cc1)N/N=C/c1ccco1", "Potency": "inconclusive [inhibitor, partial curve, poor fit]"}, {"smiles": "CCOCCCNC(=S)Nc1ccc2nc(N3CCCC3)cc(C)c2c1", "Potency": "inconclusive [inhibitor, single point]"}, {"smiles": "Cc1cc(NC(=O)c2ccccc2F)ccc1-c1nc2ccccc2s1", "activity change, negative = inhibition": "inactive: 9.19%"}, {"smiles": "Cc1ccc(-n2cnc3cc(C(=O)NCCC4=CCCCC4)ccc32)c(C)c1", "Potency": "inconclusive [inhibitor, single point]"}, {"smiles": "NC(=S)n1[nH]c(-c2ccc([N+](=O)[O-])cc2)c(N=Nc2ccccc2[N+](=O)[O-])c1=O", "activity change, negative = inhibition": "inactive: 12.6%"}, {"smiles": "Cc1ccc(NC(=O)CNc2ccccc2CN(C)C2CCCCC2)cc1", "Potency": "inconclusive [inhibitor, single point]"}, {"smiles": "Cc1cc(S(=O)(=O)N2CCN(Cc3ccccc3)CC2)c(C)s1", "Potency": "inconclusive [inhibitor, single point]"}, {"smiles": "Cc1nc(-c2nc(C(=O)NNS(C)(=O)=O)cs2)cs1", "activity change, negative = inhibition": "inactive: 8.53%"}, {"smiles": "CCC(c1nnnn1CS(=O)(=O)c1ccc(C)cc1)N1CCN(c2nc3ccccc3s2)CC1", "note": "(stereo not given)", "Potency": "inconclusive [inhibitor, partial curve]"}, {"smiles": "O=C(CCC(=O)c1ccccc1)NCCc1c[nH]c2ccccc12", "Potency": "inconclusive [inhibitor, single point]"}]}]}
